Results taken from PubChem BioAssay AID938 (National Center for Advancing Translational Sciences (NCATS), 2007).
Out of some 73,000 compounds screened, about 1,800 (2.5%) were called active. The shares of active, inactive and inconclusive entries below differ from those in the screen. Calls come from the whole dose curve; as a rule, active = well fitted activation curve with a large enough effect; inconclusive = small, poorly fitted or top-dose-only effect; inactive = no such curve, though single readings can be large or run the other way. Potencies of inconclusive entries are left out as doubtful fits.

Experiment: qHTS Assay for Agonists of the Thyroid Stimulating Hormone Receptor: Activators of Intracellular cAMP Concentrations in Parental HEK 293; note: nearly all actives have a fitted effect of over 55% in size; for activation: % of control where 0% means no effect
Settings: parental HEK293 CNG cAMP sensor, membrane potential fluorescence; activation: at 57.1 µM (top of the series) unless noted
Summary of the method: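 Counterscreen for endogenous-receptor signalling: CNG-channel HEK 293 cells report cAMP rise by membrane depolarization. After 60 min dye equilibration with 100 uM RO 20-1724, compounds incubated 30 min before bottom-read fluorescence at 590 nm.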
Potency is the fitted concentration of half-maximal effect; tags give direction and shape of the fitted curve.

| Structure (SMILES) | Potency | activation |
| --- | --- | --- |
| CC(=O)c1ccc(N2C(=O)C3C(C2=O)C(C(=O)c2ccc(Cl)cc2)N2CCCC32)cc1 (configuration not stated) | inactive | – |
| c1ccc(C(NCCNC(c2ccccc2)c2ccccc2)c2ccccc2)cc1 | inconclusive [activator, partial curve] | – |
| COc1ccc(Cl)cc1C(=O)Nn1cnc2ccccc2c1=O | inconclusive [activator, single point] | – |
| Cc1nc(N2CCC(C)CC2)c2oc3ccccc3c2n1 | active: 25.1 µM | – |
| CCN(CC)S(=O)(=O)c1cc(Br)c(C)cc1OC | inconclusive [activator, single point] | – |
| CC(c1ccco1)N(Cc1ccco1)C(=O)Nc1ccccc1 (configuration not stated) | inconclusive [activator, single point] | – |
| COC(=O)[C@@]1(Cc2ccccc2)[C@H]2c3cc(C(=O)N(C)C)n(Cc4nc5ccccc5[nH]4)c3C[C@H]2CN1C(=O)c1ccccc1 | inactive | – |
| COCCn1c(SCC(=O)Nc2cccc(C(=O)OC)c2)nc2ccccc2c1=O | inconclusive [activator, partial curve] | – |
| N#Cc1ccc(CSc2nnc(Cc3cccs3)n2Cc2ccco2)cc1 | inconclusive [activator, full curve] | – |
| O=C(Cn1nnc(-c2cccc(C(F)(F)F)c2)n1)NC(=O)NCc1ccco1 | inconclusive [activator, partial curve] | – |
| CCN1CCN(c2cc(C)c3cc(NC(=O)c4ccncc4)ccc3n2)CC1 | inactive | – |
| CCc1ccccc1Nc1nc(N)nc(COC(=O)c2cccn2C)n1 | inactive | – |
| CC(C)(C)NC[C@H](O)c1cc(O)cc(O)c1 | active: 15.8 µM | – |
| CN1CCN(c2ncc3nc(CCc4ccccc4)c(=O)n(C)c3n2)CC1 | inconclusive [activator, partial curve] | – |
| O=C(Nc1ccc2c(c1)OCO2)C1CCCN1C(=O)OCc1ccccc1 (configuration not stated) | inconclusive [activator, partial curve] | – |
| CCC(C)Cn1c(C)nc2ccccc21 (configuration not stated) | inconclusive [activator, single point] | – |
| CCOC(=O)c1c(N)sc(C(=O)N2CCCC2)c1C | inactive | – |
| CCOC(=O)N1CCN(c2nc(SC)nc3sc4c(c23)CC(C)(C)OC4)CC1 | inactive | – |
| CCCN(Cc1cc2cc(C)ccc2[nH]c1=O)C(=O)c1cccc(OC)c1 | inactive | – |
| CCCCCC1CC(CC(C)C(=O)Nc2nncs2)C(=O)O1 (configuration not stated) | inconclusive [activator, single point] | – |
| Cn1c(=S)c2[nH]c(SCc3cccnc3)nc2n(C)c1=O | – | inactive: -4.86% [at 11.4 µM] |
| CCSc1cc(C2C(C#N)=C(N)OC(C)=C2C(=O)OC)c(C)o1 (configuration not stated) | inactive | – |
| CC(C)CC(=O)Nc1c2c(nn1-c1ccc(F)cc1)CSC2 | inconclusive [activator, partial curve] | – |
| CC(=O)OC[C@@H]1O[C@@H](O/N=C2/C[C@@H](O)[C@@H](O)[C@@H]3[C@@H]4C(=O)N(C(C)(C)C)C(=O)[C@H]4CC[C@H]23)[C@H](OC(C)=O)[C@H](OC(C)=O)[C@@H]1OC(C)=O | – | inactive: -4.68% [at 11.4 µM] |

| Structure (SMILES) | Potency | activation |
| --- | --- | --- |
| COc1ccc(C)cc1NC(=O)CCC(=O)Nc1ccc2nc(N3CCN(C)CC3)cc(C)c2c1 | inactive | – |
| CC(C(=O)c1ccccc1)n1cnc2ccccc2c1=O (configuration not stated) | inconclusive [activator, single point] | – |
| Cn1cccc1C(=O)N1CCC2(CC1)CCN(C(c1ccccc1)c1ccccc1)CC2 | inactive | – |
| C=CCn1c(=N)c(C(=O)OCC)cc2c(=O)n3cc(C)ccc3nc21 | inactive | – |
| CC(=O)N1CCN(c2ccc(NCc3ccc(C)s3)cc2)CC1 | inactive | – |
| COC(=O)c1sccc1NC(=O)c1ccc(Br)o1 | active: 3.98 µM | – |
| CC(c1ccco1)N(C(=O)C12CC3CC(CC(C3)C1)C2)c1ccccn1 (configuration not stated) | inconclusive [activator, single point] | – |
| Cc1ccc2cc(C)c(SCC#N)nc2c1 | inconclusive [activator, single point] | – |
| Cc1cc(NC(=O)CCCC(=O)N(CC(=O)NCCc2ccccc2)Cc2ccc(F)cc2)no1 | inconclusive [activator, partial curve, poor fit] | – |
| CC1=CC(C)(C)N2C(=O)C3(SCC(=O)N3c3ccc(O)cc3)c3cc(C)cc1c32 (configuration not stated) | inconclusive [activator, partial curve] | – |
| Cc1oc(-c2cccc(Cl)c2)nc1CN1CCCC(C(=O)NC(C)c2ccc3c(c2)OCCO3)C1 (configuration not stated) | inactive | – |
| CSCC[C@H](NC(=O)OC(C)(C)C)c1nnc(SCc2ccc(F)cc2)o1 | inconclusive [activator, single point] | – |
| CCOC(=O)CCc1c(C)c2ccc(OC(C)C(=O)OCC)c(C)c2oc1=O (configuration not stated) | active: 20 µM | – |
| COc1ccc(OC)c(C(=O)COC(=O)c2ccc(C)o2)c1 | inconclusive [activator, single point] | – |
| Cc1ccc(S(=O)(=O)Nc2ccc3c(c2)ncn3C(C)(C)C)cc1 | inactive | – |
| O=c1c2ccccc2sn1-c1cc(S(=O)(=O)N2CCOCC2)ccc1N1CCOCC1 | inactive | – |
| CC(C)(C)c1nnc(NC(=O)C2CCN(c3ncccn3)CC2)s1 | inconclusive [activator, partial curve] | – |
| Cc1ccc2nc3nc4ccc[nH]c4cc3c2c1 | – | inactive: 2.45% [at 11.4 µM] |
| O=C(c1nn(Cc2ccccc2)c(=O)c2ccccc12)N1CCN(c2ccccn2)CC1 | active: 3.98 µM | – |
| Cc1nnc(NC(=O)CSc2nnc(Cc3cccn3C)n2C)s1 | inconclusive [activator, single point] | – |
| C/C(=N\O)c1cccc[n+]1Cc1ccccc1 | – | inactive: -5.21% [at 11.4 µM] |
| COc1ccc(S(=O)(=O)N2CCC(C(=O)NCCC3=CCCCC3)CC2)cc1OC | inconclusive [activator, single point] | – |
| Cc1coc(C)c1C(=O)CC1(O)C(=O)N(Cc2ccccc2)c2ccccc21 (configuration not stated) | inactive | – |
